What all share (test): Primary Screen for Target Class Profiling of Small Molecule Inhibitors of Methyltransferases
The target in assay [1] is Glycine N-methyltransferase (Homo sapiens) (UniProt Q14749). To be noted: purified enzyme, MTase-Glo SAH luminescence; measured here: GNMT inhibition; at 40 µM; stronger effect = lower value. An excerpt: (§1) PI: Matthew D. Hall Ph.D. and Quinlin M. Hanson Ph.D.
(§2) National Center for Advancing Translational Sciences (NCATS)
(§3) National Institute of Health (NIH), Rockville, MD
(§4) Target class profiling (TCP) is a chemical biology approach amenable to investigating understudied biological targets. TCP is achieved by developing a generalizable assay platform and applying it to screen a curated set of compound libraries against representative members of a target class. Small molecule methyltransferases (SMMTase) are a subclass of methyltransferase that act on metabolites to modulate signaling pathways, metabolize xenobiotics, or balance the available methyl pool. We screened four curated libraries totaling 27,574 unique compounds against the SMMTases nicotinamide N-methyltransferase (NNMT), phenylethanolamine N-methyltransferase (PNMT), histamine N-methyltransferase (HNMT), glycine N-methyltransferase (GNMT), catechol O-methyltransferase (COMT), and guanidinoacetate N-methyltransferase (GAMT). The data generated by this TCP can be leveraged for informed tool molecule development. For example, in the associated publication we identified a chemotype of HNMT-selective inhibitors. Additionally, we identified a putative SMMTase-selective inhibitor with potential as a tool molecule for studying broader methyltransferase biology.
(§5) High-through put screening assays were developed at the National Center for Advancing Translational Science (NCATS) for the enzymes NNMT, PNMT, HNMT, GNMT, COMT, and GAMT. Enzymatic activity was measured as a function of SAM cofactor conversion using the MTase Glo kit (Promega) for all enzymes. All assays were performed in 1536-well format with substrates and SAM concentrations at KM values. Enzyme concentration and assay timing were optimized for 10-20% SAM conversion. Initial screening of 27,574 compounds was done as single-point assays using the highest compound concentration (40 uM). […] These compounds were replated in 11-point dose response and assayed against NNMT, PNMT, HNMT, GNMT, COMT, GAMT, and a counter-assay. The IC50 and efficacy (maximal response) values were determined for each dose-response curve. These values are also accounted for in the area under the curve (AUC) values.
(§6) PROTOCOL TABLE (as described by Inglese J, Shamu CE and Guy RK. 2007)
(§7) SEQUENCE No. (e.g., 1, 2, 3, etc.); […] (e.g., Cells, Incubation, Reagent, etc.); VALUE; DESCRIPTION.
(§8) 1; Reagent; 2 uL; SMMTase Enzyme (2x) in reaction buffer, columns 1- 48.
(§9) 2; Reagent; 1 uL; SAM (4x) in reaction buffer, columns 1-48.
(§10) 3; Controls; 23 nL; DMSO in column 4; sinefungin in DMSO (0 uM - 40 uM) in 7-point 1:2 dilution series (n = 2) in column 2.
(§11) 4; Compounds; 23 nL; Columns 5-48.
(§12) 5; Reagent; 1 uL; Substrate (4x) in reaction buffer, columns 2-48.
(§13) 6; Time; 20-30 min; Incubation.
(§14) 7; Reagent; 1 uL; MTase-Glo reagent (5X), columns 1-48.
(§15) 8; Time; 30 min; Incubation.
(§16) 9; Reagent; 5 uL; MTase-Glo Detection reagent, columns 1-48.
(§17) 10; Time; 30 min; Incubation, luminescence evolution.
(§18) 11; Detection; Luminescence; ViewLux uHTS Microplate Imager (PerkinElmer).
(§19) NOTES (numbers refer to Sequence numbers above)
(§20) 1, 2, 5. White Medium Binding Greiner 1536-well plates (Cat #789175-F, Greiner Bio-One, Monroe, NC); Reaction buffer: 50 mM Tris, pH 8.0, 3 mM MgCl2, 1 mM EDTA, 50 mM NaCl, 1 mM DTT, and 0.1 mg/mL BSA. Evaporation was prevented by covering assay plates with metal lids containing holes to allow gas diffusion.
(§21) 1. Six SMMTase were profiled: HNMT, GNMT, PNMT, COMT, NNMT, GAMT
(§22) 5. The corresponding substrate was used for each enzyme: HNMT - 5.3 uM Histamine; GNMT - >500 uM Glycine; PNMT - 16.2 uM Norephinephrine; COMT - 13.7 uM Norephinephrine; NNMT - 3.8 uM Nicotinamide; GAMT - 2.5 uM Guanidinoacetate.6, 8, 10. Room temperature
(§23) 6. Final reaction conditions: 10 nM COMT, 5 uM SAM, 15 uM norepinephrine, 50 mM Tris, pH 8.0, 3 mM MgCl2, 1 mM EDTA, 50 mM NaCl, 1 mM DTT, and 0.1 mg/mL BSA; refer to tables 2 and S1 for specific timing.
8. […]

Assay [2] deals with Guanidinoacetate N-methyltransferase (Homo sapiens) (UniProt Q14353). As to conditions: purified enzyme, MTase-Glo SAH luminescence; measured here: GAMT inhibition; at 40 µM; stronger effect = lower value.
Source text: as §1, §2, §3, §4, §5, §6, §7, §8, §9, §10, §11, §12, §13, §14, §15, §16, §17, §18, §19, §20, §21, §22, §23
8. […]

Assay [3] addresses Histamine N-methyltransferase (Homo sapiens) (UniProt P50135). To be noted: purified enzyme, MTase-Glo SAH luminescence; measured here: HNMT inhibition; at 40 µM; stronger effect = lower value.
Source text: as §1, §2, §3, §4, §5, §6, §7, §8, §9, §10, §11, §12, §13, §14, §15, §16, §17, §18, §19, §20, §21, §22, §23
8. […]

Assay [4] has as its target Nicotinamide N-methyltransferase (Homo sapiens) (UniProt P40261). To be noted: purified enzyme, MTase-Glo SAH luminescence; measured here: NNMT inhibition; at 40 µM; stronger effect = lower value.
Source text: as §1, §2, §3, §4, §5, §6, §7, §8, §9, §10, §11, §12, §13, §14, §15, §16, §17, §18, §19, §20, §21, §22, §23
8. […]

Assay [5] has as its target Phenylethanolamine N-methyltransferase (Homo sapiens) (UniProt P11086). As to conditions: purified enzyme, MTase-Glo SAH luminescence; measured here: PNMT inhibition; at 40 µM; stronger effect = lower value.
Source text: as §1, §2, §3, §4, §5, §6, §7, §8, §9, §10, §11, §12, §13, §14, §15, §16, §17, §18, §19, §20, §21, §22, §23
8. […]

Structures are written as SMILES. This is one part of the list. Shown are side measurements of this screen, not its main read-out; they come without a call.
% is scaled to controls: 0 for no effect and ±100 for the full control effect.

Turning to `C[C@]1(O)CC[C@@H]2C(C(=O)O)=CO[C@@H](O[C@@H]3O[C@H](COC(=O)/C=C/c4ccc(O)c(O)c4)[C@@H](O)[C@H](O)[C@H]3O)[C@@H]21`, the activity change, negative = inhibition in assay [1] is 0.631%; in assay [2], 7.61%; in assay [3], 10.9%; in assay [4], -6.28%; in assay [5], 4.68%.
As to `CCOc1ccc(CN2CCC(c3nnc(Cn4cncn4)n3C)CC2)cn1`, the activity change, negative = inhibition in assay [1] was -0.873%; in assay [2] it was 0.499%; in assay [3] it was 2.25%; in assay [4] it was 0.876%; in assay [5], 3.24%.
`O=C(CCc1nnc2n(Cc3ccc(F)cc3)c(=O)c3ccccc3n12)NCCC1=CCCCC1`: the activity change, negative = inhibition in assay [1] was -7.46%; in assay [2] it was 0%; in assay [3], -3.72%; in assay [4], -16.5%; in assay [5] it was -4.46%.
Take `CC1CCN(C(=O)Cn2c(=O)oc3cc(S(=O)(=O)N4CCCCC4C)ccc32)CC1` (stereo not drawn): the activity change, negative = inhibition stood at 16.4% in assay [1]; 0% in assay [2]; 9.46% in assay [3]; 2.64% in assay [4]; 3.89% in assay [5].
Taken in the same sequence, the figures for `Fc1cccc(/C=N/N=C/c2cccc(F)c2)c1` were 1.12%, 4.92%, 3.03%, -8.96% and 0.64%.
Taken in the same sequence, the figures for `Cc1ccc(Cn2c(=O)c3ccccc3n3c(CCC(=O)N4CCc5ccccc5C4)nnc23)cc1` were -7.49%, 0.958%, 0.348%, -5.17% and 2.02%.
Regarding `Nc1nc(Nc2ccc(S(N)(=O)=O)cc2)n(C(=S)Nc2c(F)cccc2F)n1`, the activity change, negative = inhibition in assay [1] is 1.5%; in assay [2], 4.66%; in assay [3], 13.5%; in assay [4], -5.72%; in assay [5], 5.91%.
Taken in the same sequence, the figures for `COCCN1CC(CO)C2(CCN(C(=O)Cc3c(C)noc3C)CC2)C1` (stereo not drawn) were -1.67%, -3.53%, 1.57%, -8.66% and 12.2%.
Taken in the same sequence, the figures for `O=C(Cn1nc2n(CCc3ccccc3)c(=O)c3ccccc3n2c1=O)Nc1cccc(F)c1` were 6.37%, 1.15%, 6.51%, 6.56% and 6.32%.
Taken in the same sequence, the figures for `CC1(C(=O)NCc2ccccc2)Cn2nc(-c3ccccc3)cc2C(=O)N1c1ccc(F)cc1` (stereo not drawn) were -0.875%, 0%, 2.35%, -1.18% and -2.65%.
`O=C(NCc1ccc2c(c1)OCO2)c1ccc2c(=O)nc3c(-c4cccc(F)c4)n[nH]n3c2c1`: the activity change, negative = inhibition in assay [1] was -7.17%; in assay [2], 4.45%; in assay [3], -2.45%; in assay [4], -2.9%; in assay [5] it was -11.6%.
Taken in the same sequence, the figures for `CC1CCN(S(=O)(=O)c2ccc3c(c2)oc(=O)n3CC(=O)N2CCC(N3CCCCC3)CC2)CC1` were -2.59%, 5.8%, -12.6%, 8.5% and -5.9%.
Taken in the same sequence, the figures for `COc1cccc(NC(=O)Cn2c(=O)oc3cc(S(=O)(=O)NC4CCCCC4)ccc32)c1` were -3.2%, 3.54%, 0.15%, 5.47% and -25%.
Consider `CC1CCCC(SCC(O)C(=O)O)CC(=O)c2c(O)cc(O)cc2CC(=O)O1` (stereo not drawn), for which the activity change, negative = inhibition in assay [1] is 0%; in assay [2] it was -1.78%; in assay [3] it was -3.9%; in assay [4], -12.3%; in assay [5] it was 3.45%.
With `Cc1ccccc1Sc1ccc(/C=C2\SC(=S)NC2=O)cc1[N+](=O)[O-]`, the activity change, negative = inhibition was -55.8% in assay [2], -95.5% in assay [4] and -34.5% in assay [5].
For the compound `Cc1cc2c(cc3n2CC(C)(C(=O)NC2CCCCC2)N(Cc2cccc(Cl)c2)C3=O)o1` (stereo not drawn), the activity change, negative = inhibition in assay [1] stood at 3.01%; in assay [2], 4.5%; in assay [3], 6.87%; in assay [4], 2.92%; in assay [5] it was 2.63%.
`CN1CCN(c2nc3cc(C(F)(F)F)ccc3n3cccc23)CC1`: the activity change, negative = inhibition was -7.28% in assay [1]; 10.7% in assay [2]; -5.22% in assay [3]; -15% in assay [4]; -4.34% in assay [5].
Taken in the same sequence, the figures for `COc1cc2nccc(Oc3ccc(NC(=O)C4(C(=O)Nc5ccc(F)cc5)CC4)cc3)c2cc1OC` were -9.17%, -1.78%, -1.6%, -25% and -1.63%.
Taken in the same sequence, the figures for `CCOC(=O)c1cc2n(n1)CC(C)(C(=O)NCCC(C)C)N(c1ccc(F)cc1)C2=O` (stereo not drawn) were -4.61%, 3.01%, -2.63%, -1.76% and -3.75%.
Taken in the same sequence, the figures for `O=C(CSc1nnc2n(Cc3ccc(F)cc3)c(=O)c3ccccc3n12)Nc1ccc(F)cc1` were -2.45%, 4.69%, 4.37%, -0.372% and -0.061%.
As for `CC(C)Cn1c(=O)c2ccccc2n2c(=O)n(CC(=O)N3CCN(c4ccc(F)cc4)CC3)nc12`, the activity change, negative = inhibition in assay [1] is -2.13%; in assay [2] it was 0.667%; in assay [3], 4.69%; in assay [4] it was 0.269%; in assay [5], -1.06%.
Taken in the same sequence, the figures for `Cc1cccc(-n2cc(CN(C)C(C)c3ccon3)c(-c3cccc(F)c3)n2)c1` (stereo not drawn) were -2.18%, 0.061%, 0.83%, 0.019% and 0.617%.
Taken in the same sequence, the figures for `CC(C)c1cc(C(=O)N2CC[C@@H](NC(=O)C3CC3)C2)n[nH]1` were -2.31%, 2.03%, -4.48%, -19.5% and -10.3%.
Taken in the same sequence, the figures for `CN(CCc1ccccn1)[C@H]1[C@@H]2OC[C@@H](O2)[C@@H](NCc2ccncc2)[C@@H]1O` were -9.32%, -4.66%, -2.86%, -2.52% and -1.98%.
Consider `CN1CCN(CCNC(=O)c2cc3n(n2)CC(C)(C(=O)NC2CCCCC2)N(C)C3=O)CC1` (stereo not drawn), for which the activity change, negative = inhibition in assay [1] was 4.84%; in assay [2] it was 0%; in assay [3] it was -0.804%; in assay [4], 6.35%; in assay [5] it was -0.34%.
Taken in the same sequence, the figures for `CCCNC(=O)c1cc2n(n1)CC(C)(C(=O)NC1CCCC1)N(C)C2=O` (stereo not drawn) were 0.059%, 4.12%, -2.58%, 1.61% and 0.143%.
Taken in the same sequence, the figures for `CCCCN1C(=O)c2cc(C(=O)Nc3cccc(SC)c3)nn2CC1(C)C(=O)NC1CCCC1` (stereo not drawn) were 6.35%, 0.143%, -15.9%, 9.86% and 9.33%.
Taken in the same sequence, the figures for `CCCn1c(=O)c2c(ncn2C)n(CCC)c1=O` were 5.82%, 16.9%, 11.7%, -0.011% and 4.47%.
As for `CCCn1c(=O)c2ccc(C(=O)NC3CCCC3)cc2n2c(=O)n(CC(=O)Nc3cccc(C)c3)nc12`, the activity change, negative = inhibition was 0.251% in assay [1]; 3.47% in assay [2]; 1.34% in assay [3]; -0.537% in assay [4]; 1.23% in assay [5].
Taken in the same sequence, the figures for `CC1(C)[C@H](Cc2cc(CC3CCCCC3)on2)C[C@@H]1NC1CCOCC1` were -5.03%, -5.7%, -18.3%, -36.1% and -6.28%.
